Whole data set: some 33,000 sequences, median “E-score (-0.5 to 0.5)” near -0.041, cut for the highest 2% near 0.37. The list shows a part of the results.
Target: T1, Ecm22 (UniProt Q05958)
T1 sequence: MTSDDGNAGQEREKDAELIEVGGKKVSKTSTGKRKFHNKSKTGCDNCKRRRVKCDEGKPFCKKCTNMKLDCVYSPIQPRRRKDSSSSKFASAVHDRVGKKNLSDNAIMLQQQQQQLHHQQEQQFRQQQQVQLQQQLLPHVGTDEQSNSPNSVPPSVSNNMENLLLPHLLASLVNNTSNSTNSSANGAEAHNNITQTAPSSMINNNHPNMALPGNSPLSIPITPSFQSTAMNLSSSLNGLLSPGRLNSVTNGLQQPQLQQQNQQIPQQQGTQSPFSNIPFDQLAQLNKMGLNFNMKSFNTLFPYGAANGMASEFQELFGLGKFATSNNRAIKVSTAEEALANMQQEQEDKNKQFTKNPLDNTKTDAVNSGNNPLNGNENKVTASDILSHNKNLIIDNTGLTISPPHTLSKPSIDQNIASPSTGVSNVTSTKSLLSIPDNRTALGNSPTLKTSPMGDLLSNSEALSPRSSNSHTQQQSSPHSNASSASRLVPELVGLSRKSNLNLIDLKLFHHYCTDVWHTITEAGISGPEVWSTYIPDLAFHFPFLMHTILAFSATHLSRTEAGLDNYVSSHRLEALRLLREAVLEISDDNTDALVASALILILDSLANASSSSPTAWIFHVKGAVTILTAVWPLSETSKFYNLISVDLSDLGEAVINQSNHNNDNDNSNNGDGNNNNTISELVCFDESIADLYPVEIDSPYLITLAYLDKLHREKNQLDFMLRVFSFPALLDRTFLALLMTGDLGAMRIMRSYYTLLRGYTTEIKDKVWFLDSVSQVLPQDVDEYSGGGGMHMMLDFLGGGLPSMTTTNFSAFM
Assay: PBM E-score (8-mer binding enrichment) (E-score (-0.5 to 0.5)); higher = stronger / more preferred TF binding; most listed sequences are background and not binding sites
Conditions: protein concentration: 200 nM; construct: GST-full length
Procedure, shortened: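 GST-tagged yeast TFs (full-length or DNA-binding domain) were made by PURExpress in vitro transcription/translation and applied at about 100-200 nM to universal all-10-mer Agilent arrays. The arrays were made double-stranded by primer extension, on fresh or once-stripped slides. Bound protein was detected with fluorescent anti-GST, and scans were normalised with masliner. Each ungapped eight-base word, pooled with its reverse complement, received an E-score (modified Wilcoxon-Mann-Whitney statistic) from the Universal PBM Analysis Suite.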

Row | Sequence | PBM E-score
1 | GCTTGGCA | -0.0829
2 | AGAGGCAC | -0.088
3 | CAGTTCAC | -0.0389
4 | GTGCGCGA | 0.0692
5 | CACACAAA | 0.0355
6 | ATATTGTG | 0.0189
7 | ATTAACAG | -0.0716
8 | GTATGGCA | 0.161
9 | GTCAGCTA | -0.0674
10 | CAGTATCA | -0.0764
11 | ATGCCACG | -0.18
12 | CACTTGTA | -0.0815
13 | TAACTGAA | -0.154
14 | CTGAGCTA | -0.153
15 | TTAGAAAA | -0.197
16 | ACTTTTCG | 0.166
17 | ACCACGGA | -0.111
18 | GCAGTGCA | -0.0696
19 | CCACGCAC | -0.147
20 | ATATGGTC | 0.0594
21 | ATCTGCCA | -0.0853
22 | CTCGCTTA | 0.41
23 | AAATTGTT | -0.071
24 | ATAACCTG | -0.0622
25 | ATGATTGA | 0.0922

Row | Sequence | PBM E-score
26 | ACAGCTGC | -0.104
27 | GGAGGGCC | -0.333
28 | CTGACCTA | 0.0156
29 | ACCACACA | 0.0735
30 | AGCTGAAT | -0.0806
31 | CATCAGTA | -0.0123
32 | CCTAACGC | 0.025
33 | CACTGTTA | -0.0375
34 | AACCGAGG | 0.274
35 | CGTTCCTC | 0.452
36 | CATTGTAA | 0.0755
37 | ACCGCTGC | -0.0928
38 | ACGACTCC | 0.289
39 | CATCATGA | -0.0471
40 | AACCGCAG | -0.166
41 | ATAACTTA | 0.025
42 | CCCCGCCG | -0.165
43 | GAGTTGTA | 0.0214
44 | CATTAACA | -0.0369
45 | CGACTGAG | 0.0682
46 | AGTGGAAT | -0.0777
47 | AGTACCGA | 0.0799
48 | AGAGCGCC | -0.0862
49 | CCACAGGC | -0.353
50 | GCCACAAC | -0.055

Row | Sequence | PBM E-score
51 | AAGCCCGC | -0.00641
52 | GACTGATC | -0.104
53 | AGCCATCG | 0.149
54 | GATTGACC | -0.0386
55 | ACGAGCCA | 0.404
56 | AGGGTCTG | -0.298
57 | GATTGACA | 0.0347
58 | AGTCTAAT | -0.141
59 | CCTGTGCA | -0.0315
60 | CAGACCAG | -0.12
61 | CCAAAGAA | -0.103
62 | AGACATTC | -0.159
63 | CAGCACTG | -0.217
64 | GGCAAGGA | -0.151
65 | CCGGTAAA | 0.081
66 | AAGAGAGC | -0.147
67 | ACTCGACC | 0.0863
68 | ATAGATAA | 0.0681
69 | CACTGTAG | 0.0186
70 | ATGGCGCC | -0.237
71 | AGACGGCA | -0.0953
72 | CCGATCCG | 0.198
73 | TATGTCAA | 0.0884
74 | AATCGCGA | 0.261
75 | AAGTCGCA | 0.176

Row | Sequence | PBM E-score
76 | CCATAAGC | -0.248
77 | AAGCGGGC | 0.00141
78 | ATACCTCG | 0.241
79 | CCTATCGC | 0.0262
80 | CTGTCTAA | -0.02
81 | TCTAGGCA | -0.207
82 | CACGGTCG | 0.0505
83 | TCCAAGCA | -0.11
84 | GATTCCGC | -0.0807
85 | GGCTTTTA | -0.165
86 | ATCGTAAC | 0.368
87 | ACGGTGGG | 0.0966
88 | CGGTACCG | 0.234
89 | AATATGTC | 0.0452
90 | GCTGGTCC | -0.137
91 | AAATAAGC | 0.0207
92 | ACTTGTAA | -0.324
93 | CGCGAGGA | 0.202
94 | GCCAACTA | -0.17
95 | ATTTAGTC | -0.0668
96 | CGAAAAGC | 0.0459
97 | CCATTCGC | -0.0115
98 | TGTCGTAA | 0.428
99 | CAGAGGAA | -0.12
100 | CCCGTGTC | 0.0329

Row | Sequence | PBM E-score
101 | TGGATACA | -0.057
102 | CATCGGGC | -0.133
103 | AAAGTAAG | -0.0711
104 | ACGACTAA | 0.231
105 | CTAAACAC | -0.152
106 | CCCGTTGA | -0.12
107 | GGCGGACC | -0.242
108 | GCCAGCAA | -0.198
109 | AGGGATCG | 0.0528
110 | CAAGGCCA | -0.0891
111 | CGTGAGGC | -0.133
112 | CACCTCAG | -0.224
113 | ACGACTAT | 0.323
114 | CTCATCCC | 0.0246
115 | GGCGGGAA | -0.139
116 | CAGATTGC | 0.0722
117 | ACCGCCCT | -0.161
118 | CATCGATA | 0.127
119 | ACACCCCC | -0.424
120 | CGCCGACG | 0.00135
121 | GTGGGAAC | 0.0336
122 | CAGCTTCC | -0.149
123 | GGCGCCAC | -0.0732
124 | CAGCTCCC | -0.0851
125 | GGTGACGA | 0.0878

Row | Sequence | PBM E-score
126 | GAACCTCC | 0.0557
127 | ATTAAACA | -0.163
128 | AATATCTA | -0.0604
129 | ACTGAATG | 0.0422
130 | CGCCTACG | 0.0616
131 | GGAACCTA | -0.204
132 | AATAATCT | -0.0495
133 | ATTAGGCG | 0.0612
134 | TGACCAAA | -0.0982
135 | ATGAACGA | 0.453
136 | CACCTCAA | -0.0825
137 | CCCTAGGG | -0.321
138 | ATGACATC | -0.0503
139 | AAAGACCA | -0.188
140 | CTTGCCAA | -0.0729
141 | TTCAGGAA | 0.0542
142 | CACATGCC | -0.266
143 | ACTCGCAT | 0.319
144 | CTTGGGGA | -0.171
145 | GTTAGATA | -0.0169
146 | CCGTAAGG | -0.0224
147 | TGACAACA | -0.0795
148 | ACTAGGCC | -0.2
149 | AGTAAAGG | -0.158
150 | AGAGGTGG | -0.209

Row | Sequence | PBM E-score
151 | GAGCAGAC | 0.0159
152 | CACGCGAG | 0.253
153 | AAGGTTAG | -0.271
154 | CGATCAGC | 0.09
155 | AGATCCCG | 0.127
156 | GGCCAGTA | -0.0345
157 | CAGGGCCC | -0.219
158 | CGTATTTA | 0.369
159 | AGGCTACA | -0.293
160 | ACTCTCAA | -0.137
161 | CCTTACCA | -0.277
162 | CCAGCACC | -0.186
163 | ACTTAAAG | -0.25
164 | ACCACCCC | -0.127
165 | AATGTTAT | -0.143
166 | CACCTCTA | -0.0462
167 | CTGTTAAC | 0.136
168 | CAACGCCC | -0.143
169 | TAAACAAA | 0.114
170 | CGGCTTGA | -0.0278
171 | CGCTGCTC | -0.0896
172 | CCTTAATC | -0.203

Source: the supplement of paper PMC3334620
